Source: the BET-seq Pho4 binding data (Le et al. 2018)
This is one part of the list. The energies were worked out here from pooled read counts, against the library average; single values are noisy.

molecular target: T1, Pho4 (S. cerevisiae) (UniProt P07270); experiment: relative binding free energy (BET-seq); higher = weaker binding; conditions: reference: library average
T1 sequence: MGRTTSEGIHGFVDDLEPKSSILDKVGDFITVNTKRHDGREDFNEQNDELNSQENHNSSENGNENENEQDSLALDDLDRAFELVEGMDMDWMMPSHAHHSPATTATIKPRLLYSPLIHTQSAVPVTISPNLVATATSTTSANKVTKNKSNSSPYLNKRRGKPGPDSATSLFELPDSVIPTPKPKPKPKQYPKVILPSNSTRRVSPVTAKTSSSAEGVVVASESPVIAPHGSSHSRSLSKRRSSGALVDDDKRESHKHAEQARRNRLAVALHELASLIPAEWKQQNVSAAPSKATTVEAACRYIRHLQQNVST

| Sequence | relative binding free energy |
| --- | --- |
| ATTTTCACGTGTATTA | 0.1 kcal/mol |
| AGGAGCACGTGATGGA | 0.21 kcal/mol |
| GATCACACGTGTGTTT | 0.3 kcal/mol |
| CGTTGCACGTGGTCGG | -0.22 kcal/mol |
| CTGATCACGTGGGTTT | 0.03 kcal/mol |
| AAGGTCACGTGGTATA | 0.01 kcal/mol |
| CGGTCCACGTGGGTGA | -0.07 kcal/mol |
| CTGGCCACGTGGGGGC | -0.25 kcal/mol |
| GGATGCACGTGAGGCT | 0.16 kcal/mol |
| TAATGCACGTGGGCTT | -0.17 kcal/mol |
| CTGGGCACGTGGGATT | -0.12 kcal/mol |
| TGTTACACGTGCAGTT | 0.15 kcal/mol |
| AAACGCACGTGGGAGG | -0.18 kcal/mol |
| ATTTACACGTGAATAA | 0.47 kcal/mol |
| CCGGTCACGTGGTTTT | 0.13 kcal/mol |
| CTGGTCACGTGTTTGT | 0.09 kcal/mol |
| CGTTTCACGTGGGCTA | 0.2 kcal/mol |
| GCGTTCACGTGGTAAG | 0.19 kcal/mol |
| CGTCTCACGTGAAGGG | 0.38 kcal/mol |
| GAAGTCACGTGTAGGG | 0.21 kcal/mol |
| CGATTCACGTGGAGAG | 0.42 kcal/mol |
| GTTGCCACGTGGGGTA | -0.34 kcal/mol |
| GTTTTCACGTGATTGT | 0.44 kcal/mol |
| GGAGACACGTGATTTG | 0.23 kcal/mol |
| GGGTTCACGTGGCGCG | 0.23 kcal/mol |

| Sequence | relative binding free energy |
| --- | --- |
| ATTTCCACGTGGTGGT | -0.07 kcal/mol |
| GTATTCACGTGTATTT | 0.24 kcal/mol |
| TTAGACACGTGGTTTC | -0.01 kcal/mol |
| GTCTTCACGTGTGGTG | 0.32 kcal/mol |
| GGGGACACGTGGCGAA | 0.04 kcal/mol |
| TGTGACACGTGCGTTA | -0.18 kcal/mol |
| TATGTCACGTGATTGG | 0.21 kcal/mol |
| TTCAGCACGTGTAGTA | -0.01 kcal/mol |
| AGCGACACGTGGTGCG | -0.01 kcal/mol |
| AGAGGCACGTGGCGTG | -0.21 kcal/mol |
| TGTCTCACGTGGGGGC | 0.11 kcal/mol |
| TTAGGCACGTGGGCTA | -0.22 kcal/mol |
| TTTGTCACGTGGGGGG | 0.01 kcal/mol |
| CATAGCACGTGGGAGT | -0.17 kcal/mol |
| TATTGCACGTGGAATA | 0.01 kcal/mol |
| GTTGGCACGTGGGAGG | -0.11 kcal/mol |
| TAGCGCACGTGGGGGT | -0.22 kcal/mol |
| TGTGCCACGTGTCGTA | -0.09 kcal/mol |
| TATATCACGTGTGTAG | 0.13 kcal/mol |
| AGTGTCACGTGGGAGT | -0.11 kcal/mol |
| TCTTTCACGTGTTTGT | 0.28 kcal/mol |
| GTTAGCACGTGAAGTC | 0.38 kcal/mol |
| TAAGGCACGTGTGGTC | 0.06 kcal/mol |
| GTGAACACGTGTTTGT | 0.09 kcal/mol |
| ATAAGCACGTGTTCGT | -0.13 kcal/mol |

| Sequence | relative binding free energy |
| --- | --- |
| GTGTTCACGTGTGGAA | 0.35 kcal/mol |
| TTGAGCACGTGGGTAG | -0.08 kcal/mol |
| TTATACACGTGACTTT | 0.22 kcal/mol |
| GTTTTCACGTGTCATT | 0.29 kcal/mol |
| GAGTTCACGTGCGCGG | 0.2 kcal/mol |
| ATGGCCACGTGGGGTT | -0.26 kcal/mol |
| AGCGGCACGTGAGGCG | 0.09 kcal/mol |
| CATGGCACGTGCTGGT | -0.16 kcal/mol |
| TATATCACGTGTGTTT | 0.21 kcal/mol |
| ATGAGCACGTGTCTGT | -0.2 kcal/mol |
| ATGGTCACGTGCGGGT | 0.09 kcal/mol |
| CATATCACGTGGTGGT | -0.04 kcal/mol |
| GTCCTCACGTGGGGTT | 0.14 kcal/mol |
| AAGGTCACGTGGTCTT | 0.13 kcal/mol |
| ATATTCACGTGGACGT | 0.22 kcal/mol |
| GTAGGCACGTGTGTGG | 0 kcal/mol |
| GTTTACACGTGAGGGG | 0.39 kcal/mol |
| TGTGACACGTGCGCGT | -0.15 kcal/mol |
| AGAAGCACGTGATTGG | 0.09 kcal/mol |
| TGGGTCACGTGGGTAT | 0.03 kcal/mol |
| GGGGGCACGTGCTGGA | -0.19 kcal/mol |
| ACGGACACGTGGTTTA | 0.15 kcal/mol |
| GGTAACACGTGTTAAG | -0.03 kcal/mol |
| GGGTGCACGTGAGCGC | 0.11 kcal/mol |
| GGAGACACGTGTTAAG | 0.16 kcal/mol |

| Sequence | relative binding free energy |
| --- | --- |
| GTGCGCACGTGGTCGT | -0.1 kcal/mol |
| ATTTTCACGTGTACGC | 0.4 kcal/mol |
| GGTGTCACGTGGGGAG | -0.02 kcal/mol |
| GTGTTCACGTGCGAAT | 0.26 kcal/mol |
| AATTGCACGTGTTACA | 0.09 kcal/mol |
| GATTACACGTGGCAGG | 0.24 kcal/mol |
| TATCTCACGTGTTAGT | 0.21 kcal/mol |
| TGATACACGTGGTTGG | 0.05 kcal/mol |
| ATTTCCACGTGCTGGT | 0.08 kcal/mol |
| GTTCTCACGTGTGTTA | 0.17 kcal/mol |
| TTTAGCACGTGTAAAC | 0.33 kcal/mol |
| TGGTTCACGTGGTAGC | 0.34 kcal/mol |
| GGGGTCACGTGTTGGG | 0.25 kcal/mol |
| TAGTGCACGTGCATGA | -0.14 kcal/mol |
| TTAGGCACGTGACTTT | -0.07 kcal/mol |
| GCGGGCACGTGTGTTA | -0.06 kcal/mol |
| TTGAACACGTGGGGGA | -0.01 kcal/mol |
| GATGGCACGTGGTACT | -0.1 kcal/mol |
| GTGGACACGTGAGGTT | 0.29 kcal/mol |
| TAGTTCACGTGGGTTG | 0.26 kcal/mol |
| GGGGACACGTGAATGA | 0.4 kcal/mol |
| TGGTGCACGTGAGTGC | 0.14 kcal/mol |
| AGCATCACGTGTGGTT | 0 kcal/mol |
| ATTGTCACGTGGATCT | 0.12 kcal/mol |
| TAGGCCACGTGGTCTG | -0.21 kcal/mol |

| Sequence | relative binding free energy |
| --- | --- |
| ATGTGCACGTGTTCGT | -0.07 kcal/mol |
| TTATGCACGTGCGGAT | -0.12 kcal/mol |
| GCGTACACGTGGGTGT | 0 kcal/mol |
| GGTAGCACGTGTCCGG | -0.05 kcal/mol |
| TTCGGCACGTGCCGGG | -0.24 kcal/mol |
| AGATGCACGTGGTAGC | 0.01 kcal/mol |
| TGTCGCACGTGAGGTA | 0.12 kcal/mol |
| GGGAGCACGTGGAAAG | -0.01 kcal/mol |
| GGCGACACGTGGCGTT | 0.16 kcal/mol |
| TGTTCCACGTGATAAT | 0.35 kcal/mol |
| GAGTTCACGTGTTCGG | 0.46 kcal/mol |
| ATAGTCACGTGAGAGA | 0.25 kcal/mol |
| TGTTGCACGTGGATAT | -0.02 kcal/mol |
| TGTATCACGTGTTGGC | 0.16 kcal/mol |
| TGTGTCACGTGTTGAT | 0.01 kcal/mol |
| GAGGTCACGTGTTTTA | 0.3 kcal/mol |
| AAATGCACGTGATTGT | 0.12 kcal/mol |
| GTTAACACGTGTTAGC | 0.13 kcal/mol |
| TTAGGCACGTGTACTG | -0.11 kcal/mol |
| AGGATCACGTGAGGGC | 0.31 kcal/mol |
| TATTGCACGTGATGAA | 0.11 kcal/mol |
| ATTGACACGTGGTTTA | -0.07 kcal/mol |
| TTAGTCACGTGTTAAA | 0.12 kcal/mol |
| CGTTACACGTGTGCGT | 0.08 kcal/mol |
| TAAATCACGTGGCAGT | 0.14 kcal/mol |

| Sequence | relative binding free energy |
| --- | --- |
| AATCTCACGTGGGGTA | 0.12 kcal/mol |
| AATGTCACGTGGGGGA | -0.02 kcal/mol |
| TTAGTCACGTGTAACT | 0.12 kcal/mol |
| TAGGACACGTGAAAGG | 0.3 kcal/mol |
| TGCAGCACGTGCGGTG | -0.13 kcal/mol |
| TGGAACACGTGATGAG | 0.21 kcal/mol |
| ATTTTCACGTGGTATT | 0.33 kcal/mol |
| GTATTCACGTGGAAGA | 0.32 kcal/mol |
| GATGGCACGTGGTGTA | -0.09 kcal/mol |
| TCTTTCACGTGGTCTG | 0.17 kcal/mol |
| GAATGCACGTGGTGCG | 0.02 kcal/mol |
| GTATTCACGTGTGCGA | 0.24 kcal/mol |
| GAAAGCACGTGACGGG | 0.18 kcal/mol |
| CATATCACGTGGAGGT | 0.2 kcal/mol |
| GGTTTCACGTGCAAGG | 0.15 kcal/mol |
| TGGTACACGTGATTAG | 0.15 kcal/mol |
| GATAGCACGTGGATTG | -0.09 kcal/mol |
| AATAGCACGTGCTGTT | -0.19 kcal/mol |
| ATGGGCACGTGGAAGT | 0.04 kcal/mol |
| TCGATCACGTGGTTTT | 0.16 kcal/mol |
| GGATGCACGTGTTTGT | 0.06 kcal/mol |
